Variants at the background level are over-represented here.
B1: TPR 5TU (parent)
chain: GGAUCUUCUCGAUCUAACAAAAAAGACAAAUCUGCCACAAAGCUUGAGAGCAUCUUCGGAUGCAGAGGCGGCAGCCUUCGGUGGCGCGAUAGCGCCAACGUUCUCAACUAUGACACGCAAAACGCGUGCUCCGUUGAAUGGAGUUUAUCAUG

Variants of: B1
Experiment: polymerase ribozyme fitness, log enrichment relative to wild type (log ratio); higher = more active; in vitro selection for triplet polymerase activity
Outline: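 Each subunit of a heterodimeric triplet polymerase ribozyme was represented by a PCR-built, transcribed mutant library that underwent triplicate single-round in vitro selection with frozen incubation at −7 °C. Extended constructs were recovered by gel excision, streptavidin-bead capture and RT-PCR, and Illumina sequencing of input and output libraries kept genotypes with ≥10 input reads and ≥1 read per output. Fitness is the logarithm of genotype enrichment relative to wild-type enrichment, from inverse-variance-weighted replicate averages, with a logarithm base of 2.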

Variant	polymerase ribozyme fitness (log ratio)
A19G C79A G94U A119U A142C G152U	≤ -4.2
C18U A30G U44A G68U G86U C95G G143U	≤ -4.2
C18U A37C C75U G88U C99U	≤ -4.2
A19G U31G U53A C75G C95U G112U A122G	≤ -4.2
C18U A29U G58C G59A A89G C95G	≤ -4.2
A19C A28U A40G G65U U145G	≤ -4.2
C18U C32G G84U A121C	≤ -4.2
A19C A20G G136A A147G	-2.36
C18U U53A A73U C79U C99G U104A	≤ -4.2
A19G A39G U56A C96U A120C A138G G141A	≤ -4.2
C18U A52G U55C G58A G68C U77C C87G G136C G143A U148G	≤ -4.2
C18G U31A A41C U82A U144A U151A	≤ -4.2
A19G A21U C87U A97U C116U A137C A138C	≤ -4.2
A19C C76G G88A	≤ -4.2
A19G C96U U101G	-0.801
A19U A24C C27G C95A C103G A119U A121U	≤ -4.2
C18G U78G A107C U109A	≤ -4.2
C18U A30C C76G C93U	≤ -4.2
C18U A24G U53G C85U G126A G128U U146A	≤ -4.2
A19G C99G A119G G143U	≤ -4.2
A19C A89U C96A A138G	≤ -4.2

Variant	polymerase ribozyme fitness (log ratio)
C18U A21G A22C A29G G46A A60G U111G G136A G141U	≤ -4.2
C18G C96G C99G C105A	≤ -4.2
A19C A39U C43G C51G A52G C76A U139G	≤ -4.2
C18U A28G C51G G70C A91C	≤ -4.2
A19G A24G C43A G59A	≤ -4.2
A19G A20U C36U C96G	-3.67
C18G U31G A52G G80C U101C U127G	≤ -4.2
A19G A91C C116A G141A U145G	≤ -4.2
A19C C36U G70A G80U C105U G152U	-3.99
A19C A41G U53A C75G C129U	≤ -4.2
C18G A66U C85U U145C	≤ -4.2
A19G A52G G94C C108U A150U	≤ -4.2
C18G C38U C51U U109C C132A	≤ -4.2
C18U C85A U144G	0.299
A19C A29U C54G C108U	≤ -4.2
C18G A52U U82A	-3.02
A19G G46U U53G G94A A137C A138U U144A	≤ -4.2
C18U G25C C43G C99A	≤ -4.2
A19G A23G A24G A97G C131G	≤ -4.2
C18U A40G	-2.32
C18U A41G G42A A47U U55A U61G U130A A138U G141A	≤ -4.2

Variant	polymerase ribozyme fitness (log ratio)
C18G G59U G84U	-2.51
A19G A23U G50A G71A A73G G94A	≤ -4.2
C18G A41U A60U G83C C95U	≤ -4.2
A19U A22G C38A U61G G88A C99G	≤ -4.2
A19U A26C C35U U55G U56C G68U A73G G81A U148C C149A	≤ -4.2
C18U A52U U53A U90G C95A	≤ -4.2
A19C A39G U61G A64G U90G A97U U134A	≤ -4.2
C18U A30G G48A A73G C87G G128C	≤ -4.2
A19G A23U A30C G48U U56C A60U C87U	≤ -4.2
A19C G25C G74C C125A A142G	≤ -4.2
C18G C51U C87G C99A U101C C118U G136A	≤ -4.2
C18G U55A	-0.923
C18U A19U A26G A91U U104G	≤ -4.2
A19C A21U A47G G67U A142C	≤ -4.2
A19G G70C C118G	≤ -4.2
C18U C36U U45A A47C	≤ -4.2
A19C C57A A66G A73U C87U U134G A137U A147C	≤ -4.2
C18G U78G U82G C85U A89U A91U C131A	≤ -4.2
A19G G84A C105A U127C G141C	≤ -4.2
A19G G58C G59C	0.18
A19G G84A	-1.52

Variant	polymerase ribozyme fitness (log ratio)
A19G C36A G67A C87U C95G U111C	≤ -4.2
A19C G25C A40G U55A U134C U148C	≤ -4.2
A19G A49C U53A U90C U134A U145G	≤ -4.2
C18G C27U C76A G80U U139A	≤ -4.2
A19C C72U C93G C108A C116U C129A	≤ -4.2
A19C U45A A91G A107C	≤ -4.2
C18U G86A G140A	≤ -4.2
A19C A40C G84C A110C G112U A119C	≤ -4.2
A19G A22C G42C U53A G58C C103G C108G	≤ -4.2
C18U U44A G46U A64G U77A A110C G140C U148A	≤ -4.2
A19C A22G G25U U55A C75G C85A A98U A121U	≤ -4.2
C18U A19C U53G C93G	≤ -4.2
A19U A26C A30U C35U A41U G84A U90G C96U U148C	≤ -4.2
A19C C27U A47G G143U	≤ -4.2
C18U A49C U55A G141A	≤ -4.2
C18U C76A U127G A137C	≤ -4.2
A19C A21C U33A U56A G74A G88C U90G U101G C108G C123U G126U	≤ -4.2
C18G G71A G83U U144A	≤ -4.2
A19G C116G U148G A150G	≤ -4.2
C18G U31C A40G G92C A107C	≤ -4.2
